PubChem BioAssay AID624296 (National Center for Advancing Translational Sciences (NCATS), 2012)
Among all 350,000 compounds or so, about 9,900 (2.8%) were called active. Inconclusive means that the source gave no clear call. Such entries were picked first, then a sample of the others. The call rests on the fitted dose curve; in most records, active means well fitted activation curve with a large enough effect; inconclusive means small, poorly fitted or top-dose-only effect; inactive means no such curve, though single readings can be large or run the other way. Potencies of inconclusive entries are left out as doubtful fits.

Assay: A quantitative high throughput screen for small molecules that induce DNA re-replication in MCF 10a normal breast cells. Further: nearly all actives have a fitted effect of over 50% in size.
Conditions: MCF 10A DNA re-replication, Hoechst nuclear intensity, 48 h; series mostly up to 46.1 µM
Potency means the concentration at half of the fitted maximal effect; tags describe the fitted curve by direction and shape.

Compound	Potency
OC(COCc1ccccc1)Cn1cnc2ccccc21 (centres undefined)	inactive
CCn1c(-c2ccoc2C)n[nH]c1=S	inconclusive [activator, full curve, poor fit]
O=[N+]([O-])c1ccc(F)cc1F	inconclusive [activator, full curve, poor fit]
O=C(OCn1ncc(Cl)c(Cl)c1=O)c1cccc(C(F)(F)F)c1	active: 5.8 µM
COc1ccc(CC(=O)OCC(=O)NCc2ccc(C)cc2)cc1OC	inactive
S=C(Nc1cccc(Cl)c1Cl)NC1CCN(Cc2ccccc2)CC1	inactive
Cc1ccc(-c2nc3ncccn3c2Nc2ccc3c(c2)OCO3)o1	inactive
Cc1ccc(O)c(NC(=S)NC(=O)c2ccccc2Cl)c1	inconclusive [activator, single point]
CCc1ccc(OC(=O)/C=C/c2ccco2)cc1	inactive
CC(=O)c1ccc(NC(=O)C(C)Sc2nnc(-c3ccncc3)n2C2CC2)cc1 (centres undefined)	inactive
CCCNC(=O)c1ccc2c(c1)nc(C)n2-c1cccc(Cl)c1	inconclusive [activator, partial curve, poor fit]
O=C(CCc1ccc(S(=O)(=O)N2CCOCC2)cc1)OCC(=O)c1ccc(Br)cc1	inconclusive [activator, single point]
Cc1ccsc1/C=N\Nc1cn[nH]c(=O)c1Cl	inconclusive [activator, partial curve, poor fit]
CCOC(=O)c1c(C)[nH]c(C(=O)N/N=C\c2ccccc2O)c1C	inconclusive [activator, partial curve]
CC(C)(C)c1ccc(/C=C/C(=O)NC2CCS(=O)(=O)C2)cc1 (centres undefined)	active: 0.92 µM
Cc1cc(F)ccc1S(=O)(=O)Nc1ccccc1C(=O)Nc1ccc2[nH]c(=O)[nH]c2c1	inconclusive [activator, single point]
CC(NCc1ccncc1)C12CC3CC(CC(C3)C1)C2 (centres undefined)	inconclusive [activator, partial curve, poor fit]
Cc1ccccc1C(=O)N1CCN(c2ccc(NC(=O)c3ccc([N+](=O)[O-])o3)cc2)CC1	inconclusive [activator, partial curve, poor fit]
Cc1nc(NC(=O)C2CCCC2)sc1Cc1ccc2c(c1)OCO2	inconclusive [activator, partial curve]
CCSc1nc(N2CCOCC2)c2c(c1C#N)CCCC2	inconclusive [activator, single point]
Cc1ccc(NC(=O)CSc2nnc(-c3cnccn3)n2Cc2ccco2)cc1	inactive
COc1ccccc1C(=O)NC(=S)Nc1ccc(NC(=O)c2ccco2)cc1	inactive
CCC(=O)Nc1nnc(-c2cccs2)s1	inactive

Compound	Potency
Cn1c(=O)c2c(nc(NCCc3ccccc3)n2CC(=O)NCCc2ccccc2)n(C)c1=O	inconclusive [activator, partial curve, poor fit]
CC(C)C(NC(=O)CN1C(=O)c2cccc3cccc1c23)C(C)C	inconclusive [activator, single point]
Oc1ccc(N2CCN(c3nc(-c4cccs4)nc4ccccc34)CC2)cc1	inconclusive [activator, partial curve]
COCCCN(C(=O)c1ccccc1F)c1nc(-c2ccc(OC)cc2)cs1	inconclusive [activator, partial curve, poor fit]
COc1ccc(C2C(C(=O)O)c3ccccc3C(=O)N2Cc2ccco2)cc1 (centres undefined)	inconclusive [activator, partial curve, poor fit]
Cc1sc2ncnc(N[C@@H](Cc3ccccc3)C(=O)O)c2c1C	inactive
COc1ccc(/C=C2\SC(=S)N(CCC(=O)Nc3cccc(C(=O)O)c3)C2=O)cc1	inconclusive [activator, partial curve, poor fit]
CCOC(=O)CNC(=O)C1(/C=C/c2ccccc2)CC(=O)N1c1ccc(OC)cc1 (centres undefined)	inactive
Cc1cc(C(=O)NCc2ccc3c(c2)OCO3)n(-c2ccccc2)n1	inactive
O=C(c1ccncc1)N1CCc2ccccc2C1	inactive
COc1ccccc1C(CCNS(=O)(=O)c1ccc(C)cc1)c1ccco1 (centres undefined)	active: 13 µM
O=C(CCN1CCC(c2ccccc2)C1)c1ccccc1 (centres undefined)	inconclusive [activator, single point]
CCCN1C(=O)/C(=C\c2nc3ccccc3c(=O)[nH]2)c2ccccc21	inconclusive [activator, partial curve, poor fit]
C(=N\Nc1nc2ccccc2[nH]1)/c1ccc2ncccc2c1	inconclusive [activator, single point]
On1onc2c3cc(-c4ccccc4)nc3ccc21	active: 8.2 µM
CC(C)(C)c1cc(S(=O)(=O)CCc2ccccn2)cc(C(C)(C)C)c1F	inactive
O=C(Nc1nccs1)C1CCCN1S(=O)(=O)c1ccc(Cl)cc1 (centres undefined)	inconclusive [activator, partial curve, poor fit]
Oc1cccc(/C=N\Nc2nncc(-c3ccccc3)n2)c1	inconclusive [activator, full curve, poor fit]
Cc1c(NC(=O)C(C)OC(=O)CCC2CCCC2)c(=O)n(-c2ccccc2)n1C (centres undefined)	inconclusive [activator, single point]
COc1ccccc1CNc1nc(S(=O)(=O)c2ccccc2)c(Cl)s1	inconclusive [activator, partial curve, poor fit]
CCOc1ccc(NC(=O)CN(C)C(=O)COc2cccc3c2OC(C)(C)C3)cc1OCC	inactive
O=C1[C@@H](Oc2ccccc2)[C@@H](c2cccnc2)N1c1ccccc1	inconclusive [activator, single point]
CC(Oc1ccc(F)cc1)C(=O)Nc1cc(S(=O)(=O)N2CCCCC2)ccc1N1CCOCC1 (centres undefined)	inactive

Compound	Potency
CCOc1ccc(-c2nc3n(c(=O)c2C#N)CCCS3)cc1	inconclusive [activator, single point]
CSc1ccccc1OCc1cc(C(=O)N2CCSCC2)no1	inconclusive [activator, partial curve, poor fit]
O=[N+]([O-])c1ccc(N/N=C/c2ccccc2)c(F)c1	active: 5.8 µM
O=c1cc(Cl)[nH]c(=O)n1CCNc1ncc(C(F)(F)F)cc1Cl	inconclusive [activator, single point]
CCOc1ccc(C(=O)NC(C)CCc2ccccc2)cc1 (centres undefined)	inactive
CC(C)CN(C(=O)Cn1nnc(-c2ccc(F)cc2)n1)C1CCS(=O)(=O)C1 (centres undefined)	inconclusive [activator, single point]
CCOC(=O)c1sc(=S)n(C)c1NC(=O)c1ccc(C(C)(C)C)cc1	inconclusive [activator, partial curve, poor fit]
CSCc1c(C(=O)NC2CCCc3ccccc32)oc2ccccc12 (centres undefined)	inconclusive [activator, full curve]
C=CCOc1ccccc1CN1CCC(Oc2cc(C(=O)NC3CC3)ccc2OC)CC1	inactive
Cc1cc(C)cc(OCC(=O)Nc2ccc(N3CCOCC3)cc2N2CCOCC2)c1	inconclusive [activator, full curve, poor fit]
O=C1Nc2ccc(Br)cc2/C1=C/C1CC=CCC1 (centres undefined)	inconclusive [activator, single point]
Cc1nccn1CC1CCc2c(c3ccccc3n2C)C1=O (centres undefined)	inconclusive [activator, partial curve, poor fit]
CC(C)(C)OC(=O)N1CCC(CC2CC(c3ccccc3)=NO2)(C(=O)NCc2ccccc2)CC1 (centres undefined)	inconclusive [activator, partial curve, poor fit]
CN(Cc1ccccc1)c1ccc(C(CC(N)=O)NC(=O)Cc2cccc3ccccc23)cc1[N+](=O)[O-] (centres undefined)	inconclusive [activator, partial curve, poor fit]
O=[N+]([O-])c1cc(S(=O)(=O)Nc2ccccc2)ccc1Nc1ccccc1	inconclusive [activator, single point]
C[C@H](CO)N1C[C@H](C)[C@@H](CN(C)Cc2ccncc2)Oc2c(NC(=O)C3CCCCC3)cccc2C1=O	inconclusive [activator, partial curve, poor fit]
COc1cc(C(=O)NC(=S)Nc2ccc3c(c2)C(=O)N(C)C3=O)cc(OC)c1OC	inconclusive [activator, full curve, poor fit]
Cc1nnc(N/N=C/c2cc(C)n(-c3ccc(F)cc3)c2C)n1N	inconclusive [activator, single point]
CCn1cc([N+](=O)[O-])c(C(=O)N2N=C(c3ccc4ccccc4c3)CC2c2ccccc2O)n1 (centres undefined)	inconclusive [activator, full curve, poor fit]
COc1cc(/C=C2\SC(=Nc3cccnc3)NC2=O)cc(OC)c1OC	active: 3.66 µM
OC(CNCc1ccccc1C(F)(F)F)C(F)(F)F (centres undefined)	inactive
CCc1ccc(OCC(=O)OC2CCS(=O)(=O)C2)cc1 (centres undefined)	inactive
COc1ccc(C(C(=O)NC(C)(C)C)N(C[C@H]2CC[C@@H]([C@@H]3CC[C@H](CO)O3)O2)C(=O)c2ccccc2)cc1 (some centres undefined)	inconclusive [activator, full curve, poor fit]
